Results are given in words; binding and its absence hold for the method and conditions named. Some results given as binding are weak or reduced against the parent protein; the word gives no strength. For part of these data: Where a sequence is shown, tags or fusion partners need not be part of it.
How the values were obtained:
[1] = biological target: AtDEG15 lacking the N-terminal 25 amino acids (yeast fusion) (Arabidopsis thaliana) (UniProt Q8VZD4); test: yeast three-hybrid; full length AtDEG15 in pBridge, AtDEG15 constructs in pGAD424, AtCML3 from the second multiple cloning site of pBridge expressed (0 mM Met); lacZ reporter, Miller units; S. cerevisiae AH109
[2] = biological target: AtDEG15 full length (yeast two-hybrid / three-hybrid fusion) (Arabidopsis thaliana) (UniProt Q8VZD4); test: as above
[3] = biological target: T1, AtCML3 full length (yeast two-hybrid fusion) (Arabidopsis thaliana) (UniProt Q9SRR7); test: two-hybrid; Matchmaker GAL4 system, fusions in pBridge (DNA-binding domain) and pGAD424 (activation domain), S. cerevisiae AH109; HIS3 reporter (growth on His-free medium) and lacZ reporter (beta-galactosidase, Miller units)
T1 sequence: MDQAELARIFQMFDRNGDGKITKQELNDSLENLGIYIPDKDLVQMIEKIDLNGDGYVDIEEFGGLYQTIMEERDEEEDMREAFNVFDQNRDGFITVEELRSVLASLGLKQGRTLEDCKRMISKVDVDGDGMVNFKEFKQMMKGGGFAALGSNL

[4] = biological target: AtDEG15 lacking the N-terminal 25 amino acids (yeast fusion) (Arabidopsis thaliana) (UniProt Q8VZD4); test: as above
[5] = biological target: AtDEG15 lacking the first 75 amino acids (yeast fusion) (Arabidopsis thaliana) (UniProt Q8VZD4); test: as above
[6] = biological target: AtDEG15 lacking the first 100 amino acids (yeast fusion) (Arabidopsis thaliana) (UniProt Q8VZD4); test: as above
[7] = biological target: AtDEG15 full length (yeast two-hybrid / three-hybrid fusion) (Arabidopsis thaliana) (UniProt Q8VZD4); test: as above
[8] = biological target: AtDEG15N, the 373 amino acids long N-terminal domain of AtDEG15 (yeast fusion) (Arabidopsis thaliana) (UniProt Q8VZD4); test: as above
[9] = biological target: AtDEG15 lacking the first 50 amino acids (yeast fusion) (Arabidopsis thaliana) (UniProt Q8VZD4); test: as above

Question: How did the binding [1] turn out when “AtDEG15 lacking the N-terminal 25 amino acids (yeast fusion) (from UniProt Q8VZD4 26-709) (domain or fragment)” was run?
Answer: Its binding is “no binding”.

Question: And the binding [2]?
Answer: Its binding is “no binding”.

Question: How did the binding [3] turn out when “AtDEG15 full length (yeast two-hybrid / three-hybrid fusion) (from UniProt Q8VZD4 1-709) (enzyme)” was run?
Answer: Its binding is “binds”.

B1: AtCML3 full length (yeast two-hybrid fusion) (natural protein, Arabidopsis thaliana, UniProt Q9SRR7 1-153, looked up)
chain: T1 sequence
notes: AtCML3, calmodulin-like protein of Arabidopsis thaliana (At3g07490); full-length coding region; Cloned both into pBridge and pGAD424; also called AtCML3_pGAD424; AtCML3_pBridge; source: yeast two-hybrid fusion (S. cerevisiae AH109)
Question: Which binding [4] does the source give for B1 here?
Answer: Its binding is “no binding”.

Question: And the binding [5]?
Answer: The binding was “no binding”.

Question: What about the binding [6] of the same molecule?
Answer: The binding was “no binding”.

Question: And the binding [7]?
Answer: Its binding is “binds”.

Question: And the binding [8]?
Answer: The binding was “binds”.

Question: What about the binding [9] of the same molecule?
Answer: Its binding is “no binding”.
